Results taken from the supplement of paper PMC12645437, “Orthogonal IMiD-Degron Pairs Induce Selective Protein Degradation in Cells” (ACS Chemical Biology, 2025).
This is one part of the list.

These sequences were tested against no compound (DMSO) (assay: log2 fold change of degron read counts, EGFP-low vs EGFP+ sorted cells; higher = lower degron-EGFP level without compound (poor expression or instability)). Details: compound: DMSO control; 18 h.
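Note: jurkat cells carrying a lentiviral library of mutant zinc finger degrons fused to EGFP plus mCherry, mCherry+ cells FACS sorted, degron abundance counted by next-generation sequencing.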

Sequence	log2 fold change of degron read counts
FMCNQCGRAFTQKGNLLRHIKL	-0.571
FACPICGALFTQKGNLLRHIKL	0.423
FRCPICGHCFTQKGNLLRHIKL	-0.274
FNCPICGRLFTQKGNLLRHIKL	-0.331
LHCEICGFPCTQKGNLLRHIKL	-0.147
FFCEICGHRFTQKGNLLRHIKL	-1.02
FKCSVCGHTFTQKGNLLRHIKL	-0.703
FHCDICGAVFTQKGNLLRHIKL	-1.2
FHCDICGAWFTQKGNLLRHIKL	-0.256
LYCEICGFYCTQKGNLLRHIKL	1.42
FQCEQCGASFTQKGNLLRHIKL	-1.35
LACNQCGFWCTQKGNLLRHIKL	1.87
FLCEICGACFTQKGNLLRHIKL	-1.96
FGCSVCGHNFTQKGNLLRHIKL	0.239
FFCNQCGAVFTQKGNLLRHIKL	0.184
FGCDICGANFTQKGNLLRHIKL	-1.81
LKCNQCGFFCTQKGNLLRHIKL	1.26
FVCEICGRTFTQKGNLLRHIKL	-1.22
FVCNQCGRDFTQKGNLLRHIKL	-1.08
FACEICGATFTQKGNLLRHIKL	-3.61
FGCPICGHNFTQKGNLLRHIKL	-0.167
FCCPQCGAAFTQKGNLLRHIKL	-0.456
LTCNQCGFMCTQKGNLLRHIKL	0.437
FLCNQCGAPFTQKGNLLRHIKL	-0.222
LLCPICGFGCTQKGNLLRHIKL	0.929

Sequence	log2 fold change of degron read counts
FACEQCGAFFTQKGNLLRHIKL	-0.257
FMCPVCGAKFTQKGNLLRHIKL	-1.02
FWCNQCGHYFTQKGNLLRHIKL	1.58
FICEVCGAIFTQKGNLLRHIKL	-1.76
FECDICGAWFTQKGNLLRHIKL	-1.69
FSCPQCGADFTQKGNLLRHIKL	-1.87
LNCEICGFFCTQKGNLLRHIKL	1.83
LDCEICGFICTQKGNLLRHIKL	1.61
FGCEICGAGFTQKGNLLRHIKL	-1.02
FHCDQCGAVFTQKGNLLRHIKL	-1.45
FYCNICGAHFTQKGNLLRHIKL	0.248
FKCPICGAAFTQKGNLLRHIKL	-0.425
FMCEICGARFTQKGNLLRHIKL	-1.26
FMCNQCGHNFTQKGNLLRHIKL	-0.0526
FHCEVCGADFTQKGNLLRHIKL	-2.17
FACNQCGHRFTQKGNLLRHIKL	0.29
FFCPICGHHFTQKGNLLRHIKL	0.34
FRCNICGAHFTQKGNLLRHIKL	-0.619
FSCNQCGAGFTQKGNLLRHIKL	-0.56
FTCPQCGACFTQKGNLLRHIKL	-0.475
FYCEICGAHFTQKGNLLRHIKL	-1.13
FCCNQCGAYFTQKGNLLRHIKL	0.157
FACDQCGAKFTQKGNLLRHIKL	-1.67
FICDQCGAAFTQKGNLLRHIKL	-1.17
FSCEVCGAQFTQKGNLLRHIKL	-2.06
